The supplement of paper PMC6135742
Where a name gives a salt, the structure may show the parent alone. ± gives the standard deviation of the averaged measurements. Over roughly 2,600 compounds, “MBP+ mature oligodendrocyte number relative to DMSO vehicle control” has its median near -0.34; the highest 2% begin near 13. The list shows a part of the results.

Test system: jimpy (Plp1 jimpy) mouse iPSC-derived oligodendrocyte progenitor cells
Experiment: MBP+ mature oligodendrocyte number relative to DMSO vehicle control (SDs above negative control mean); higher = more surviving jimpy oligodendrocytes (rescue)
Details: 10 µM; 3 days
Protocol: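 Primary phenotypic screen of >3,000 bioactive compounds (Selleck L1700 and Sigma LO1280 libraries) at a single dose of 10 µM. Compounds were added to jimpy (Plp1 mutant) mouse iPSC-derived OPCs at the start of thyroid hormone-induced oligodendrocyte differentiation, one well per compound in 384-well plates. After 3 days cells were stained for MBP, Sox10 and DAPI and imaged with an Operetta system. MBP+ oligodendrocyte number and total cell number were expressed as the number of SDs above the mean of the DMSO negative control on the same plate (n=16 control wells per plate). Hits were defined as >=4 SD for oligodendrocytes and >=2 SD for total cells.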

Compared with `S=C(NC1CCCCC1)N1CCC(c2cnc[nH]2)CC1` [Thioperamide maleate], `OC1CCCCC1N1CCC(c2ccccc2)CC1` (racemic) [(±)-Vesamicol hydrochloride] is higher in “MBP+ mature oligodendrocyte number” value: 0.182 for the first, 15.7 for the second.

First: CN1[C@@H]2CC(O)C[C@H]1[C@@H]1O[C@@H]12 (stereo partly specified) [Scopine]
Second: CC1(C)CC(O)CC(C)(C)N1[O] [Tempol]
The “MBP+ mature oligodendrocyte number” value of the first is lower: 0.227 for the first, 1.93 for the second.

Compared with `CN1[C@@H]2CC(O)C[C@H]1[C@@H]1O[C@@H]12` (stereo partly specified) [Scopine HCl], `CC(C)(C)OC(=O)NC1[C@H]2CNC[C@@H]12` (stereo partly specified) is higher in “MBP+ mature oligodendrocyte number” value: 0.171 for the first, 0.225 for the second.

Compared with `NC(N)=NOCC[C@H](N)C(=O)O` [L-Canavanine sulfate], `N[C@@H](Cn1oc(=O)[nH]c1=O)C(=O)O` [(+)-Quisqualic acid] is higher in “MBP+ mature oligodendrocyte number” value: -1.26 for the first, 2.11 for the second.

Compared with `NC(N)=NOCC[C@H](N)C(=O)O` [L-Canavanine], `NC(=O)CN1CC(O)CC1=O` (stereo unspecified) [Oxiracetam] is lower in “MBP+ mature oligodendrocyte number” value: 0.0839 for the first, -0.598 for the second.

Compared with `COC[C@H]1OC(=O)c2coc3c2[C@@]1(C)C1=C(C3=O)[C@@H]2CCC(=O)[C@@]2(C)C[C@H]1OC(C)=O` [Wortmannin], `C/C(=C\c1csc(C)n1)[C@@H]1C[C@@H]2O[C@]2(C)CCC[C@H](C)[C@H](O)[C@@H](C)C(=O)C(C)(C)[C@@H](O)CC(=O)O1` [Epothilone B (EPO906, Patupilone)] is higher in “MBP+ mature oligodendrocyte number” value: -0.928 for the first, -0.589 for the second.

First: Clc1cnc(Oc2ccc(Oc3ncc(Cl)cc3Cl)cc2)c(Cl)c1
Second: COc1cc(-n2c(=S)[nH]c3ccccc3c2=O)c(Cl)cc1Cl [Mdivi-1]
The “MBP+ mature oligodendrocyte number” value of the first is lower: -0.568 for the first, 3.7 for the second.

First: CNCCc1ccc(O)c(O)c1 [N-Methyldopamine hydrochloride]
Second: CNCC(O)c1ccc(O)cc1 (racemic) [(±)-Synephrine]
The “MBP+ mature oligodendrocyte number” value of the first is lower: -0.544 for the first, -0.211 for the second.

Compared with `C=C[C@H]1CN2CC[C@H]1C[C@H]2[C@H](O)c1ccnc2ccccc12` [Cinchonidine], `O=C1/C(=C/c2ccccc2)C[C@@]2(O)[C@H]3Cc4ccc(O)c5c4[C@@]2(CCN3CC2CC2)[C@H]1O5` [BNTX maleate salt hydrate] is lower in “MBP+ mature oligodendrocyte number” value: 1.18 for the first, under -4.47 for the second.

Compared with `Cc1cccc(C(C)c2c[nH]cn2)c1C` (stereo unspecified) [Medetomidine HCl], `CN(C)Cc1c[nH]c2ccccc12` [Gramine] is higher in “MBP+ mature oligodendrocyte number” value: -1.17 for the first, 5.21 for the second.

First: COc1ccc2c(c1)[C@]13CCCC[C@@H]1[C@H](C2)N(C)CC3 [Dextromethorphan hydrobromide monohydrate]
Second: COc1ccc(C(=O)N2CCCC2=O)cc1 [Aniracetam]
The “MBP+ mature oligodendrocyte number” value of the first is lower: -1.43 for the first, -0.114 ± 0.56 for the second.

First: CCCN1CCC[C@@H]2Cc3nc(N)ncc3C[C@H]21 [Quinelorane dihydrochloride]
Second: CCCN1C[C@H](CSC)C[C@@H]2c3cccc4[nH]cc(c34)C[C@H]21 [Pergolide mesylate]
The “MBP+ mature oligodendrocyte number” value of the first is higher: -0.961 for the first, -2.36 for the second.

First: CC(Cc1ccc(O)cc1)NCC(O)c1cc(O)cc(O)c1 (stereo unspecified) [Fenoterol hydrobromide]
Second: CC(N)Cc1c[nH]c2ccc(OCc3cccs3)cc12 (stereo unspecified)
The “MBP+ mature oligodendrocyte number” value of the first is higher: -0.91 for the first, -3.03 for the second.

Compared with `C1CCc2nnnn2CC1` [Pentylenetetrazole], `C1=C2CCCN[C@H]2[C@@H]2C[C@H]1[C@H]1CCCCN1C2` [Aloperine] is lower in “MBP+ mature oligodendrocyte number” value: -1.23 for the first, -3.52 for the second.

First: Cn1cnc(CCN)c1 [1-Methylhistamine dihydrochloride]
Second: CCCCc1ccc(C(=O)O)nc1 [Fusaric acid]
The “MBP+ mature oligodendrocyte number” value of the first is higher: -0.167 for the first, -0.648 for the second.

Compared with `C=CC[C@]1(O)CC[C@H]2[C@@H]3CCC4=CC(=O)CCC4=C3C=C[C@@]21C` [Altrenogest], `CCS(=O)(=O)Nc1cccc(C(=C2CCCCC2)c2cnc[nH]2)c1` is lower in “MBP+ mature oligodendrocyte number” value: 8.76 for the first, 2.51 for the second.

`C[N+](C)(C)CC#CCN1CCCC1=O` [Oxotremorine methiodide] and `CC[C@@H](C(N)=O)N1CCCC1=O` [Levetiracetam] are within error of each other in “MBP+ mature oligodendrocyte number” value: 0.0686 for the first, 0.32 ± 0.42 for the second.

First: NC(=O)c1ccc(OCC(O)CN2CC=C(c3ccc(F)cc3)CC2)cc1 (stereo unspecified)
Second: C[N+]1(C)CCOC(O)(c2ccc(-c3ccc(C4(O)C[N+](C)(C)CCO4)cc3)cc2)C1 (stereo unspecified) [Hemicholinium-3]
The “MBP+ mature oligodendrocyte number” value of the first is higher: 13.9 for the first, -0.596 for the second.

First: Nc1ccncc1 [4-Aminopyridine]
Second: CCCN1C[C@H](CSC)C[C@@H]2c3cccc4[nH]cc(c34)C[C@H]21 [Pergolide methanesulfonate]
The “MBP+ mature oligodendrocyte number” value of the first is higher: -0.000818 for the first, -0.961 for the second.

Compared with `CCCCCCCCCCCCCC(=O)O[C@@H]1[C@@H](C)[C@@]2(O)[C@@H](C=C(CO)C[C@]3(O)C(=O)C(C)=C[C@@H]23)[C@@H]2C(C)(C)[C@]12OC(C)=O` [Phorbol 12-myristate 13-acetate], `O=C(O[C@H]1C[C@H]2CC[C@@H](C1)[N+]21CCCC1)C(O)(c1ccccc1)c1ccccc1` [Trospium chloride] is higher in “MBP+ mature oligodendrocyte number” value: 0.182 for the first, 2.24 for the second.

For `N.N.[Cl][Pt][Cl]` [Cisplatin], the “MBP+ mature oligodendrocyte number” value was 1.09 ± 2.6.
